Results from PubChem BioAssay AID588591 (National Center for Advancing Translational Sciences (NCATS), 2011).
Among all 390,000 compounds or so, about 4,700 (1.2%) were called active. Inconclusive results, whose numbers are uncertain, are shown with a selection of clear calls. Calls follow the shape of the dose curve; as a rule, active = well fitted inhibition curve with a large enough effect; inconclusive = small, poorly fitted or top-dose-only effect, or another doubt; inactive = no such curve, though single readings can be large or run the other way. A potency beside an inconclusive call is a rough fit, not a confirmed value.

molecular target: DNA polymerase eta (Homo sapiens) (UniProt Q9Y253); test: qHTS for Inhibitors of Polymerase Eta; settings: recombinant Pol eta, fluorescent DNA replication assay; series mostly up to 114 µM; activity change, negative = inhibition: at the top concentration
Chain of UniProt Q9Y253 (Q9Y253 whole entry, looked up): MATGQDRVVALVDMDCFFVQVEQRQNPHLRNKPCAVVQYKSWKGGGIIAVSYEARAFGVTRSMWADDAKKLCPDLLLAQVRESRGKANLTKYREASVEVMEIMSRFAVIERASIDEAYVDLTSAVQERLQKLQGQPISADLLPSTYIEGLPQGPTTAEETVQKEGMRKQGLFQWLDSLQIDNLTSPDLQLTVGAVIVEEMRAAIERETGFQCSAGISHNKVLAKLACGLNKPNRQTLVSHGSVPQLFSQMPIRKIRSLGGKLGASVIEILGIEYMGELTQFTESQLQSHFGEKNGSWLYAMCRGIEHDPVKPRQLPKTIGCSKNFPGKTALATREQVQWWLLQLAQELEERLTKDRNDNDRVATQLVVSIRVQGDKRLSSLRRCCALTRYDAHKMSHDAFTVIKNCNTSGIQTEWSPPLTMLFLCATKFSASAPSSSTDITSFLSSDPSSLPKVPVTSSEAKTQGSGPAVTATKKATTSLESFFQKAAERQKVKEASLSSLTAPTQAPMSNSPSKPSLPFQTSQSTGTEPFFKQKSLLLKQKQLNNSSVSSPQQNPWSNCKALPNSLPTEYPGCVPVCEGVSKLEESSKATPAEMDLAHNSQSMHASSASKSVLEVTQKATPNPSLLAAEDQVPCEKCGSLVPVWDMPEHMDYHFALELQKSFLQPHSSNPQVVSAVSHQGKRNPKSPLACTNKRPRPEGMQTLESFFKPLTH
Summary of the method: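 Pol eta at 10 nM preincubated with compounds 15 min at room temperature; reaction started with fluorescent substrate (50 nM final) and read kinetically at 0 and 10 min.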
% is scaled to controls: 0 for no effect and ±100 for the full control effect; potency is read from the fitted curve at half-maximal effect; tags tell the direction and shape of the fitted curve.

Row | Compound | Potency | activity change, negative = inhibition
1 | CSCCC(NC(=O)/C(=C/c1ccco1)NC(=O)c1ccc(Br)o1)C(=O)O (configuration not stated) | inconclusive: 35.5 µM [inhibitor, single point] | –
2 | O=C(CSc1ncn(-c2ccccc2)n1)Nc1nccs1 | inconclusive: 39.8 µM [inhibitor, single point] | –
3 | COc1ccc2c(COC(=O)c3n[nH]c4ccccc34)cc(=O)oc2c1 | inconclusive: 14.1 µM [inhibitor, full curve] | –
4 | Cc1cc(=O)[nH]c(N=N/C(=N/Nc2ccc(O)cc2)c2ccccc2)n1 | inconclusive: 17.8 µM [inhibitor, full curve, poor fit] | –
5 | Cc1c(Cl)c(C(F)F)nn1CC(=O)NC1C(=O)N2C(C(=O)O)=C(CSc3nnnn3C)CSC12 (configuration not stated) | active: 20 µM | –
6 | CCOc1ccc(NC(=O)Cn2cc(C(=O)c3ccc(C)c(C)c3)c(=O)c3cc(F)ccc32)cc1 | – | inactive: -27.4%
7 | O=c1c2ccccc2sc2ccc(NCCCN3CCOCC3)cc12 | inconclusive: 63.1 µM [inhibitor, partial curve, poor fit] | –
8 | Cc1cc(=O)oc2cc(OCC(=O)NC(Cc3c[nH]c4ccc(O)cc34)C(=O)O)c(Cl)cc12 (configuration not stated) | active: 25.1 µM | –
9 | COc1ccc(Br)cc1CN(C)C(=O)Cc1ccc(S(=O)(=O)N2CCOCC2)s1 | inconclusive: 79.4 µM [inhibitor, partial curve, poor fit] | –
10 | CC(=O)Nc1ccc(S(=O)(=O)NCCC(=O)OCc2nnc(-c3ccccc3)o2)cc1 | inconclusive: 12.6 µM [inhibitor, partial curve, poor fit] | –
11 | CCOC(=O)c1sc2nc3c(SCC(=O)O)cc(C(=O)c4cc(F)ccc4O)cn3c(=O)c2c1C | active: 20 µM | –
12 | Cc1c(-c2nc(N)nc(Nc3ccc(F)cc3)n2)oc2ccccc12 | inconclusive: 35.5 µM [inhibitor, partial curve, poor fit] | –
13 | CCCN1CCCc2cc(CN)ccc21 | active: 89.1 µM | –
14 | CCOC(=O)c1[nH]c2ccccc2c1NC(=O)c1ccccc1OC | – | inactive: -7.72%
15 | CCS(=O)(=O)N1CCC(C(=O)NCc2ccco2)CC1 | – | inactive: -10.8%
16 | O=C(N=Nc1c(O)[nH]c2ccc([N+](=O)[O-])cc12)c1ccccc1Cl | active: 39.8 µM | –
17 | CCc1ccccc1NC(=O)/C(=C/c1ccco1)c1ccccc1 | inconclusive: 31.6 µM [inhibitor, partial curve, poor fit] | –
18 | Cc1sc2nc(CSC(C)C(=O)NC3(C#N)CCCCC3)[nH]c(=O)c2c1C (configuration not stated) | – | inactive: -15.8%
19 | Cc1ccc(-c2cc(C(=O)N/N=C/c3ccc([N+](=O)[O-])o3)c3ccccc3n2)o1 | active: 50.1 µM | –
20 | CC(C)c1nc2n[nH]c(N)c2c2c1CSC(C)(C)C2 | inconclusive: 79.4 µM [inhibitor, partial curve, poor fit] | –
21 | COc1ccc2c(c1)c(=O)c(C(=O)c1ccc(C)cc1)cn2Cc1ccccc1F | – | inactive: 4.83%
22 | O=C(/C=C/c1ccccc1)Nc1cccc(C(=O)O)c1 | – | inactive: 0.308%
23 | Cc1nnc(SCC(=O)Nc2nccs2)s1 | inconclusive: 31.6 µM [inhibitor, partial curve, poor fit] | –

Row | Compound | Potency | activity change, negative = inhibition
24 | C=CCn1c(SC)nccc1=O | – | inactive: -16.9%
25 | CC1CCC(C(=O)NNC(=O)c2cc(-c3ccco3)[nH]n2)CC1 (configuration not stated) | – | inactive: -4.04%
26 | O=C(/C=C/Sc1ncn[nH]1)c1ccc(Cl)cc1 | inconclusive: 31.6 µM [inhibitor, partial curve, poor fit] | –
27 | COc1cccc(CNC(=O)COC(=O)c2nc(Cl)c(Cl)c(Cl)c2Cl)c1 | inconclusive: 14.1 µM [inhibitor, partial curve] | –
28 | O=C(/C=C/c1cccc([N+](=O)[O-])c1)NCCc1ccc(F)cc1 | inconclusive: 89.1 µM [inhibitor, partial curve, poor fit] | –
29 | Cc1cccc2cc3c(nc12)SC(=NCC1CCCO1)N(Cc1ccco1)C3 (configuration not stated) | active: 44.7 µM | –
30 | CCOC(=O)c1c(Nc2nc(C)c(C(=O)NC)s2)sc(C)c1C | inconclusive: 17.8 µM [inhibitor, partial curve, poor fit] | –
31 | O=C1NCCN(CC2CCN(CCc3ccc(Cl)c(Cl)c3)CC2)C1=O | inconclusive: 31.6 µM [inhibitor, partial curve, poor fit] | –
32 | O=C1C=C(Nc2cccc(O)c2)CC(c2ccco2)C1 (configuration not stated) | inconclusive: 25.1 µM [inhibitor, partial curve, poor fit] | –
33 | O=C(O)CNc1nc(-c2ccccc2)c2cc([N+](=O)[O-])ccc2n1 | inconclusive: 2.24 µM [inhibitor, full curve, poor fit] | –
34 | CC[C@]12c3[nH]c4cc(CCC(=O)N(C)C)ccc4c3CCN1C(=O)[C@@H](CC(=O)NCCC1=CCCCC1)C[C@@H]2C(=O)N1CCN(C(=O)c2ccco2)CC1 | – | inactive: -17.3%
35 | CC(=O)c1ccc(OCCCC(=O)NCC(c2ccco2)N(C)C)cc1 (configuration not stated) | – | inactive: 13.2%
36 | CNC(=O)c1ccsc1NC(=O)c1sc2ccccc2c1Cl | inconclusive: 15.8 µM [inhibitor, full curve, poor fit] | –
37 | COCCN(C(=O)Cn1nnc2ccccc21)C(C(=O)NC1CCCCC1)c1ccc(OC)cc1OC (configuration not stated) | inconclusive: 25.1 µM [inhibitor, single point] | –
38 | Cc1ccccc1/C=C\c1nc2ccccc2c(=O)n1Cc1ccccc1 | inconclusive: 31.6 µM [inhibitor, single point] | –
39 | O=C(C[C@@H]1C/C=C\C[C@H](NC(=O)OCC2c3ccccc3-c3ccccc32)C(=O)OC[C@@H]2CCCN2C1=O)NCCO | – | inactive: -4.63%
40 | COc1cccc2cc(C(=O)Nc3ccc(F)cc3)c(=Nc3ccc(C(=O)O)cc3)oc12 | inconclusive: 7.94 µM [inhibitor, full curve, poor fit] | –
41 | CNC(=S)N/N=C/c1ccc(-c2ccc(C(=O)O)cc2)o1 | active: 22.4 µM | –
42 | COc1ccc(C(=O)Nc2cccc([N+](=O)[O-])c2)cc1Br | inconclusive: 20 µM [inhibitor, partial curve, poor fit] | –
43 | COc1cc(/C=C2/S/C(=N/S(=O)(=O)Cc3ccccc3)NC2=O)c([N+](=O)[O-])cc1OC | inconclusive: 31.6 µM [inhibitor, full curve] | –
44 | O=C(N/N=C/C(Br)=C/c1ccccc1)c1n[nH]c2c1CCC2 | inconclusive: 89.1 µM [inhibitor, single point] | –
45 | CCOc1ccc(C(=O)Nc2ccc(C(=O)OCc3cc(=O)n4nc(CC)sc4n3)cc2)cc1 | – | inactive: -4.65%
46 | COc1ccc(Cl)cc1NC(=O)CSc1nc(C)cc(C)n1 | – | inactive: -20.1%

Row | Compound | Potency | activity change, negative = inhibition
47 | CCc1ccc(-c2cc(C)no2)cc1S(=O)(=O)Nc1ccc(Cl)cn1 | inconclusive: 89.1 µM [inhibitor, single point] | –
48 | CCOc1ccc(NC(=O)Cn2cc(C(=O)c3ccc(OCC)cc3)c(=O)c3cc4c(cc32)OCCO4)cc1 | inconclusive: 44.7 µM [inhibitor, partial curve] | –
49 | COc1ccc(-c2cc3ccccc3oc2=O)cc1NC(=S)NC(=O)c1ccc2c(c1)OCCO2 | inconclusive: 50.1 µM [inhibitor, partial curve, poor fit] | –
50 | CNS(=O)(=O)c1cccc(C(=O)OCC(=O)/C=C2/N(C)c3ccccc3C2(C)C)c1 | inconclusive: 25.1 µM [inhibitor, full curve, poor fit] | –
51 | COc1ccc(S(=O)(=O)N2CCCCCC2)cc1C(=O)N(C)Cc1c(F)cccc1Cl | inconclusive: 100 µM [inhibitor, partial curve, poor fit] | –
52 | Cc1oc(C)c2c(=O)ccc3c(c12)OC(N)=C(C#N)C3c1ccc(F)cc1 (configuration not stated) | inconclusive: 12.6 µM [inhibitor, full curve, poor fit] | –
53 | O=S(=O)(O)c1cccc2cccc(Nc3ccccc3)c12 | active: 20 µM | –
54 | CC1CCCN(Cc2c(O)ccc3c2O/C(=C\c2ccco2)C3=O)C1 (configuration not stated) | active: 44.7 µM | –
55 | COc1cccc2c(=O)c3cccc(N)c3[nH]c12 | inconclusive: 25.1 µM [inhibitor, partial curve] | –
56 | CCOC(=O)c1c(C)[nH]c(C(=O)COc2ccc3ccc(=O)oc3c2)c1C | inconclusive: 50.1 µM [inhibitor, partial curve] | –
57 | Oc1ccc(/C=N\Nc2cc(N3CCOCC3)nc(N3CCOCC3)n2)c(O)c1 | inconclusive: 15.8 µM [inhibitor, full curve, poor fit] | –
58 | COc1ccccc1NC(=O)O/N=C(\N)c1ccccc1 | inconclusive: 89.1 µM [inhibitor, partial curve, poor fit] | –
59 | O=C(NCc1ccco1)c1cc2c(s1)CSC2 | active: 20 µM | –
60 | CC(C)CN1C(=O)c2ccc(C(=O)Nc3ccc(O)cc3C(=O)O)cc2C1=O | – | inactive: -8.2%
61 | CC(C)c1ccc(OCc2cc(=O)n3c(-c4ccccc4)csc3n2)cc1 | inconclusive: 89.1 µM [inhibitor, single point] | –
62 | CCCCCNC(=O)c1c[nH]c2ccc(S(=O)(=O)N3CCC4(CC3)OCCO4)cc2c1=O | inconclusive: 25.1 µM [inhibitor, single point] | –
63 | CN(CC(=O)Nc1ccccc1C(F)(F)F)C(=O)CCc1nc2sc3c(c2c(=O)[nH]1)CCCC3 | active: 44.7 µM | –
64 | CC(C)(C)N(Cc1ccccc1)C(=O)COC(=O)c1ccc([N+](=O)[O-])o1 | inconclusive: 100 µM [inhibitor, single point] | –
65 | CC(=O)Nc1ccc(SCC(=O)Nc2sccc2C#N)cc1 | – | inactive: -15.2%
66 | Cc1occc1C(=O)n1nnc2ccccc21 | inconclusive: 31.6 µM [inhibitor, partial curve, poor fit] | –
67 | COc1ccc(NC(=O)c2ccc(S(=O)(=O)N(C)c3ccccc3)cc2)cn1 | inconclusive: 79.4 µM [inhibitor, partial curve, poor fit] | –
